Results from PubChem BioAssay AID1508623 (National Center for Advancing Translational Sciences (NCATS), 2021).
The campaign covered roughly 48,000 compounds. About 450 (0.94%) were called active. Roughly 19% stayed inconclusive and do not appear here. The call rests on the fitted dose curve; in most records, active means well fitted inhibition curve with a large enough effect; inconclusive means small, poorly fitted or top-dose-only effect; inactive means no such curve, though single readings can be large or run the other way. The list shows a part of the results.

Assay: Primary qHTS for Identification of Small Molecule Inhibitors of Huntingtin Promoter Activity; further: nearly all actives have a fitted effect of over 50% in size
Details: HEK293 HTT promoter firefly luciferase reporter (activity 0% = vehicle and -100% = no light), 24 h; series mostly up to 57.5 µM; activity change, negative = inhibition: at the top concentration
Summary of the method: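 Firefly luciferase signal from promoter-reporter HEK293 cells was scaled between vehicle (0%) and zero RLU (-100%). Compounds were tested at final concentrations of up to 57.5 uM over 24 h at 37 degrees C. PTC124 at 50 uM final served as control inhibitor.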

Activity change, negative = inhibition, inactive:
Cc1ccc(OCC(=O)Nc2nnc(SCc3cc(=O)c4ccccc4[nH]3)s2)cc1C 6.92%
COc1ccccc1C(=O)n1nc(-c2cccnc2)nc1NCc1ccccc1 -13.2%
Cc1cccc(-c2nc3c4ccccc4nc(N4CCN(c5ccc(F)cc5)CC4)n3n2)c1 -8.89%
COc1ccc(NC(=O)c2coc(=O)c3ccccc23)cc1OC 50.3% [at 11.5 µM]
O=C(CCn1c(=O)c2sccc2n(Cc2ccccc2F)c1=O)NCc1ccc2c(c1)OCO2 -3.93%
CCOc1ccc(-n2cc(-c3ccccc3)c3c(NCCc4ccccc4)ncnc32)cc1 -30%
Cc1cccc(NC(=O)Cn2nc(-c3ccccc3)c3cnc4ccccc4c32)c1 -32%
CCc1cccc(NC(=O)CCn2c(=O)c3cccn3c3cccnc32)c1 -1.27%
CCOC(=O)N1CCc2c(sc3c2c(=O)n(Cc2ccccc2)c(=O)n3CC(=O)Nc2cccc(CC)c2)C1 -12%
O=C(CCNS(=O)(=O)c1ccc2c(c1)CCCC(=O)N2)Nc1cccc(Cl)c1 -7.7%
O=C(NCCc1ccccc1)c1ccc(CS(=O)Cc2ccc(Cl)cc2)o1 (stereo unspecified) -1.19%
COc1ccc(C(=O)c2c(N)c(-c3nc(-c4ccc5c(c4)OCO5)cs3)c3ccccn23)cc1 -0.301%
COC(=O)Cn1c(C2CC(=O)N(c3c(C)cccc3C)C2)nc2ccccc21 (stereo unspecified) -6.77%
O=C(Nc1ccc(F)cc1F)C1CCN(c2ncccn2)CC1 -5.71%
O=S(=O)(c1ccc(C2CCCCC2)cc1)N1CCN(c2ccc(Cl)c(Cl)c2)CC1 -9.63%
Cc1ccccc1NC(=O)Cn1cc(C(=O)c2ccco2)c2ccccc21 -23.9%
Cc1ccc(C)c(N2CCN(c3ncnc4c3nc3n4CCCC3)CC2)c1 -14.5%
Cc1cccc(Cn2cc(S(=O)(=O)c3cccc(Cl)c3)c(=O)c3cc(F)c(N4CCOCC4)cc32)c1 -5.35%
O=C1c2ccccc2C(=O)C1c1ccc(Br)cc1 10.8%
CCOC(=O)c1c(C)[nH]c(C)c1S(=O)(=O)N(C)CC(=O)Nc1ccc(OC)cc1 -11.2%
Cn1c(=O)c2nc(SCC(=O)Nc3ccc(OC(F)(F)F)cc3)n(C)c2n(C)c1=O -1.19%
COc1cc(C(CC(=O)Nc2ccc(C)c(F)c2)N2Cc3ccccc3C2=O)cc(OC)c1OC (stereo unspecified) 1.11%
COc1ccc(-c2nc(CNC(=O)NC3CCCCC3)c(C)o2)cc1 0%
CCN(CC)c1ncnc2c1cnn2-c1cc(Cl)ccc1C -15.7%
O=C1OCC2=C1C(c1cccc(Cl)c1)CC(=O)N2c1ccc(C(F)(F)F)cc1 (stereo unspecified) -16.2%
CCOc1ccccc1NC(=O)C1CCN(S(=O)(=O)c2c(C)noc2/C=C/c2ccco2)CC1 -16%
COc1ccc(OC)c(CNC(=O)c2ccc(N3Cc4ccccc4Oc4ncccc43)s2)c1 -27.1%
O=C(CCn1c(=O)c2ccccc2n(CC(=O)Nc2cccc(F)c2)c1=O)NCCc1ccccc1 -8.55%
CCn1c(-c2nonc2N)nc2c(C#CC(C)(C)O)ncc(OC[C@H]3CCCNC3)c21 -19.5%
Cc1noc(-c2ccc(-c3noc(-c4ccc(F)cc4)n3)cc2)n1 -12.6% [at 11.5 µM]
CCOC(=O)c1cccc(NC(=O)CCSCCc2ccccn2)c1 -11.2%
Cc1ccc(NC(=O)Cn2nc(-c3ccccc3)nc(Cc3ccc(Cl)cc3)c2=O)cc1 -15.4%
COc1cc(C2Nc3ccccc3-c3cc(C)nn32)ccc1O (stereo unspecified) -12.1%
COCCn1c(SCC(=O)Nc2cc(Cl)ccc2OC)nc2c([nH]c3ccccc32)c1=O -18.5%
COc1ccc(CNC(=O)CCNS(=O)(=O)c2ccc3c(c2)oc(=O)n3C)cc1 -9.45%
CC1(C)O[C@H]2C[C@@H]3[C@H]4CCC5=CC(=O)C=C[C@]5(C)[C@@]4(F)[C@@H](O)C[C@]3(C)[C@]2(C(=O)CO)O1 -6.83%
Cc1ccccc1C(=O)Nc1cc(C)c(O)c(-c2nc3ccccc3o2)c1 -10.3%
Cc1cc2c(s1)Nc1ccccc1N=C2N1CCN(C)CC1
CC1CCN(CC2CCN(C(=O)NCc3ccccc3)CC2)CC1 -16.8%
CCCCCCn1nnc2sc(-c3ccccc3)cc2c1=O 16.6%
CCC1CN(C(=O)Nc2ccccc2F)c2cc(C)ccc2O1 (stereo unspecified) 0.439%
CCOc1ccc(-c2nc(Cn3c(=O)cc(C)c4c(C)nn(-c5ccccc5)c43)c(C)o2)cc1 1.01%
COc1ccc(C2CC(=O)c3cc(-c4nc(-c5cccc([N+](=O)[O-])c5)cs4)c(=O)n(-c4ccccc4)c3C2)cc1 (stereo unspecified) -4.82%
CCn1cc(C(=O)N(C)Cc2ccccc2)c(=O)c2cc(S(=O)(=O)N3CCc4ccccc4C3)ccc21 -0.452%
CCc1ccc(NC(=O)CSc2ccnc(=O)[nH]2)cc1 18.5%
Cc1nn(C)c(C)c1S(=O)(=O)N(CC(=O)NCCc1ccccc1)c1ccc(C(C)C)cc1 2.82%
Cc1ccc(C(=O)c2cn(Cc3cccc(Cl)c3)c3nc(C)ccc3c2=O)cc1 -22.7%
O=C(CSCc1ccc(F)cc1)N1CCN(c2ccccc2F)CC1 1.83%
Cc1cc2c(cc1S(=O)(=O)NCc1ccc(F)cc1)n(C)c(=O)c(=O)n2C -9.16%
Cc1cccc(N2C(=O)CC(c3ccc(F)cc3)C3=C2COC3=O)c1 (stereo unspecified) 0%
Cc1cn2c(=O)cc(COC(=O)c3ccc(NC(=O)COc4ccccc4C)cc3)nc2s1 -19.7%
CCOC(=O)c1cc(-c2ccccc2)n(-c2cccc(C(=O)Nc3cccc(SC)c3)c2)c1C -20.6%
CN1C(=O)C(Cc2c[nH]c3ccccc23)NC1=S (stereo unspecified) 13.6%
COc1ccc(CCC(=O)NCCc2csc(-c3ccc(F)cc3)n2)cc1 -6.13%
COc1ccc(OC)c(NC(=O)CSc2nc(=O)n(CCN(C)C)c3c2CCC3)c1 -13.4%
COc1cc(NC(=O)CC2C(=O)N(c3ccccc3)C(=O)N2Cc2ccc(F)cc2)cc(OC)c1 (stereo unspecified) -13.6%
CCc1ccccc1NC(=O)N1CCOc2ccccc21 -16.1%
O=C(Cn1ncc2c([nH]c3ccccc32)c1=O)NCCCN1CCN(c2ccc(F)cc2)CC1 -6.68%
CCc1ccc(-n2c(=O)c3c4c(sc3n(Cc3ccccc3C#N)c2=O)CCCC4)cc1 15.3%
CCCn1c2ccccc2c2cnn(CC(=O)Nc3cc(C)c(Cl)cc3OC)c(=O)c21 -9.73%
CC1CCc2c(sc(NC(=O)Cc3ccccc3)c2C(=O)Nc2ccc(Cl)cc2)C1 (stereo unspecified) -19%
